# Sequences with one replicate were seen in a single cluster, so their values are uncertain.
# Tested on: ATP
# Experiment: switch fluorescence ratio, 500 uM ATP over buffer (Cy3 cluster intensity, sum of 5 cycles each) (fold (ratio)); higher = stronger signal-on switching upon ATP binding; sequences stand for … in TCGTCGGCAGCGTCAGATGTGTATAAGAGACAGTTTTTTTTTTTTTTTTTTTTTTTTT…TC
# Conditions: aptamer strand: ATP DNA aptamer (quencher-CACCTGGGGGAGTATTGCGGAGGAAGG + anchor), 100 nM annealed; ATP concentration: 500 uM; one replicate
# Summary of the method: (§1)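 Imaging in selection buffer was followed by imaging after 15 min with 500 uM ATP at 22 °C, for Cy3-labelled switching-strand clusters annealed to 100 nM quencher-labelled ATP aptamer on a modified Illumina MiSeq flow-cell. Five of these buffer/ATP cycles ran, separated by NaOH stripping and re-annealing. The fluorescence ratio per cluster is summed target-cycle over summed buffer-cycle Cy3 intensity, averaged per switch-domain sequence; clusters outside 100-1000 RFU were removed.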
# 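Note: ATP exposure 15 min at 22 °C before imaging.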
row,Sequence,switch fluorescence ratio
1,GACGTGCTCT,0.987
2,TGATCCAGCG,0.996
3,CGAGTCAGGA,1.03
4,ACCGGAGAGG,1.01
5,CACGGCTTTC,1.09
6,GATGAGGTCC,0.984
7,TTTTGGCGAT,1.06
8,CAGGAAGACT,1.05
9,ACTGAAACTT,1.05
10,TCGGATAGC,1.02
11,ATTGTACTCG,1
12,ACCATGAGTT,1.01
13,TGTTGGTGTT,1.01
14,GTAAGGGGA,1.47
15,AGTTCGGCCG,1.06
16,CCTTTACAGT,1.06
17,AGTTGCAGTA,0.934
18,GCAAATCGCG,1
19,TTACGAATGT,1
20,CCCTAGCCGC,1.6
21,TAGGGGTGTG,1.02
22,AGTGAATCAC,0.969
23,CAGTGGTGTT,0.982
24,CGTATCCACG,1.05
25,GCAATGTATT,1.01

row,Sequence,switch fluorescence ratio
1,AATTCGTGCT,0.978
2,CGCTCCGTGA,3.46
3,AGAGCGGCAG,0.984
4,CACTCGGTCG,1.05
5,ATATTTGGAC,1.05
6,TGAAATGTGT,1.03
7,CAAAGCGC,0.976
8,ATGCAGAGGT,0.988
9,AGTTAAGCAA,1.49
10,TTTGGATCTT,0.998
11,GAACTCCTCC,1.77
12,CAGACAATTA,1.02
13,GGATATAGAC,1.04
14,CGTCATGGAA,1.04
15,TGAGGAGGTC,0.97
16,AGAGCCAGAC,1.07
17,AAAGCACCTG,1.1
18,ACGGAGCGAG,2.68
19,TCGGGTCGCT,1.01
20,CATAAGTGAT,1.02
21,AGCCGGCTAT,1
22,CAACTTAGTA,1
23,CTTAGTCGTC,1.01
24,AGCGTTTGAG,1.01
25,TTTATGGCAA,1.34

row,Sequence,switch fluorescence ratio
1,ATGGGTCGTG,1.02
2,TTCCGTAATT,2.39
3,ATGTTCTGTA,1
4,ACAGCAGGCG,1.03
5,AAACCCCAAC,1.1
6,ACTCATCGT,1
7,TGGAGATCGT,0.998
8,CTCGTAGGTT,0.971
9,CCGTGTTATC,1.29
10,AAAATTCTGT,0.996
11,CGGCCTAGGG,1.01
12,AGACGCATTA,2.33
13,GATGCCCTTT,1.03
14,ATGGATCTGG,1.01
15,GGGCCCGCTT,0.979
16,CTGCTGTGTT,1
17,TAATTACACT,1.01
18,ACACACCCA,1.38
19,TCTTGTCAGC,0.999
20,AAATGTCATG,0.969
21,TTTGGCGATG,0.957
22,GTTAATCGTG,0.949
23,CTGCCAGGGT,1.03
24,TATGACGTAA,1.07
25,CGGCCAGGGT,0.957

# Tested on: ATP
# Experiment: switch fluorescence ratio, 500 uM ATP over buffer (Cy3 cluster intensity, sum of 5 cycles each) (fold (ratio)); higher = stronger signal-on switching upon ATP binding
# Conditions: aptamer strand: ATP DNA aptamer (quencher-CACCTGGGGGAGTATTGCGGAGGAAGG + anchor), 100 nM annealed; ATP concentration: 500 uM; one replicate
# Summary of the method: as §1
row,Sequence,switch fluorescence ratio
1,TCGTCGGCAGCGTCAGATGTGTATAAGAGACAGTTTTTTTTTTTTTTTTTTTTTTTTTGTTC,1

# — the supplement of paper PMC10126150
